Results from the supplement of paper PMC4996465.
Viability of KB3-1 and Nalm-6 cells after 48 h of drug alone (CellTiter-Glo), 11 doses over about 4.5 log units. % of DMSO wells, lower = more cell loss; AC50 from the fitted curve, lower = more potent. No active / inactive call. Nalm-6 was screened in two runs. AC50 is listed only for well-fitted inhibitory curves. KB3-1 is a HeLa-derived carcinoma line, Nalm-6 a B-cell precursor leukaemia line.

What was measured:
[1] = system: KB3-1; assay: viability (% of DMSO control); higher = more viable cells
Protocol: (§1)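 Eleven-dose screen of the NCATS MIPE 3 library on cells without co-treatment; CellTiter-Glo after 48 h, as % of DMSO wells.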

[2] = system: Nalm-6; assay: as above
Protocol: as §1

[3] = system: KB3-1; assay: log AC50 of viability decrease (48 h) (log10 M); higher = less potent
Protocol: (§2)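 Eleven-dose screen of the NCATS MIPE 3 library on cells without co-treatment; CellTiter-Glo after 48 h. AC50 from the curve fit; only inhibitory curves of the better fit classes are listed.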

[4] = system: Nalm-6; assay: as above
Protocol: as §2

| Structure (SMILES) | viability ([1]; 0.00078 µM) | viability ([1]; 0.00234 µM) | viability ([1]; 0.00702 µM) | viability ([1]; 0.0211 µM) | viability ([1]; 0.0632 µM) | viability ([1]; 0.19 µM) | viability ([1]; 0.569 µM) | viability ([1]; 1.71 µM) | viability ([1]; 5.12 µM) | viability ([1]; 15.4 µM) | viability ([1]; 46.1 µM) | viability ([2]; run: 1, 0.00078 µM) | viability ([2]; run: 1, 0.00234 µM) | viability ([2]; run: 1, 0.00702 µM) | viability ([2]; run: 1, 0.0211 µM) | viability ([2]; run: 1, 0.0632 µM) | viability ([2]; run: 1, 0.19 µM) | viability ([2]; run: 1, 0.569 µM) | viability ([2]; run: 1, 1.71 µM) | viability ([2]; run: 1, 5.12 µM) | viability ([2]; run: 1, 15.4 µM) | viability ([2]; run: 1, 46.1 µM) | viability ([2]; run: 2, 0.00078 µM) | viability ([2]; run: 2, 0.00234 µM) | viability ([2]; run: 2, 0.00702 µM) | viability ([2]; run: 2, 0.0211 µM) | viability ([2]; run: 2, 0.0632 µM) | viability ([2]; run: 2, 0.19 µM) | viability ([2]; run: 2, 0.569 µM) | viability ([2]; run: 2, 1.71 µM) | viability ([2]; run: 2, 5.12 µM) | viability ([2]; run: 2, 15.4 µM) | viability ([2]; run: 2, 46.1 µM) | log AC50 of viability decrease [3] | log AC50 of viability decrease ([4]; run: 2) | log AC50 of viability decrease ([4]; run: 1) |
| --- | --- | --- | --- | --- | --- | --- | --- | --- | --- | --- | --- | --- | --- | --- | --- | --- | --- | --- | --- | --- | --- | --- | --- | --- | --- | --- | --- | --- | --- | --- | --- | --- | --- | --- | --- | --- |
| CC(C)C[C@H](NC(=O)[C@H](Cc1ccccc1)NC(=O)c1cnccn1)B(O)O [Bortezomib] | 98.9% | 101% | 83.8% | 31.3% | 8.09% | 5.44% | 3.31% | 2% | 1.64% | 1.88% | 2.73% | 0.264% | -0.0617% | 0.93% | 1.22% | 1.48% | 1.69% | 2.2% | 1.85% | 1.61% | 1.75% | 1.66% | 119% | 103% | 12.5% | 5.5% | 5% | 4.11% | 3.05% | 2.76% | 2.22% | 1.92% | 1.8% | -7.83 | -8.43 | – |
| CO.COc1cc(Nc2c(C#N)cnc3cc(OCCCN4CCN(C)CC4)c(OC)cc23)c(Cl)cc1Cl [Bosutinib] | 104% | 105% | 105% | 93.6% | 90.2% | 85.2% | 77.7% | 83.9% | 74.3% | 54% | 4.4% | 120% | 116% | 124% | 107% | 108% | 112% | 79.1% | 80.8% | 55.3% | 41.4% | 6.08% | 105% | 108% | 109% | 115% | 112% | 108% | 91.3% | 77.4% | 73.6% | 42.6% | 4.43% | -4.63 | -4.88 | -5.18 |
| Cc1cc2c(F)c(Oc3ncnn4cc(OC[C@@H](C)O)c(C)c34)ccc2[nH]1 [Brivanib] | 101% | 100% | 102% | 103% | 100% | 101% | 103% | 94.2% | 83.1% | 76.4% | 57.4% | 102% | 107% | 108% | 107% | 116% | 108% | 99.9% | 94% | 56% | 55% | 16.1% | 106% | 109% | 106% | 109% | 105% | 106% | 97% | 92.6% | 73.6% | 61.1% | 26.2% | -4.83 | -4.83 | -4.93 |
| Cn1c(Nc2ccc(C(F)(F)F)cc2)nc2cc(Oc3ccnc(-c4nc(C(F)(F)F)c[nH]4)c3)ccc21 [CHIR-265] | 102% | 95.4% | 98.7% | 94.2% | 92.5% | 86.3% | 81.2% | 85.9% | 70.9% | 69.7% | 30.2% | 106% | 99.5% | 108% | 96.7% | 92.8% | 85.2% | 71.9% | 80.6% | 59.2% | 53% | 2.62% | 101% | 96.4% | 103% | 101% | 94% | 76.7% | 71.3% | 75.2% | 51.9% | 41.4% | 1.79% | -4.63 | -4.93 | -4.73 |
| COc1c(C)cnc(Cn2cnc3c(Cl)nc(N)nc32)c1C [CNF-2024] | 102% | 103% | 93.1% | 67.2% | 56.9% | 64.8% | 66.7% | 64.1% | 64.2% | 64.8% | 58.3% | 94.5% | 97.4% | 77.8% | 51.5% | 37.5% | 22.6% | 20.6% | 19.5% | 24.9% | 24.6% | 19.2% | 93.3% | 95.1% | 71.8% | 61.8% | 38.7% | 28% | 22.7% | 26.4% | 18.8% | 22.4% | 17.4% | -7.98 | -7.73 | -7.78 |
| C#Cc1cccc(Nc2ncnc3cc(OC)c(OCCCCCCC(=O)NO)cc23)c1 [CUDC-101] | 102% | 104% | 99.1% | 102% | 95.3% | 80.5% | 52.9% | 26.6% | 11.5% | 9.23% | 6.76% | 112% | 107% | 112% | 110% | 90.6% | 25.3% | 4.53% | 2.65% | 2.02% | -0.268% | -0.504% | 105% | 108% | 106% | 106% | 95% | 29.5% | 3.46% | 1.78% | 1.19% | -0.0885% | 0.151% | -6.28 | -6.88 | -6.93 |
| Cc1nc(N)sc1-c1ccnc(Nc2ccc(N3CCOCC3)cc2)n1 [CYC-116] | 97.8% | 91.9% | 97.7% | 102% | 96.6% | 86.9% | 86.1% | 82.7% | 73% | 66.5% | 26.1% | 94% | 104% | 99.1% | 104% | 103% | 58.4% | 54.2% | 56.4% | 40.4% | 28.8% | 4.62% | 109% | 108% | 103% | 106% | 100% | 76.4% | 68.6% | 72.4% | 45.5% | 23.3% | 4.87% | -4.73 | -5.23 | -5.78 |
| N#CCNC(=O)c1ccc(-c2ccnc(Nc3ccc(N4CCOCC4)cc3)n2)cc1 [CYT387] | 103% | 95.3% | 97.9% | 103% | 101% | 96.6% | 100% | 89.6% | 70.3% | 62.7% | 31% | 111% | 110% | 112% | 115% | 108% | 107% | 84.5% | 72.6% | 51.4% | 36.4% | 4.87% | 102% | 100% | 110% | 104% | 101% | 101% | 87.1% | 79% | 46.8% | 24.3% | 4% | -4.78 | -5.28 | -5.28 |
| C=CC(=O)Nc1cc2c(Nc3ccc(F)c(Cl)c3)ncnc2cc1OCCCN1CCOCC1 [Canertinib] | 102% | 98.6% | 103% | 103% | 96.5% | 100% | 102% | 98% | 97.2% | 89.9% | 1.97% | 125% | 117% | 124% | 126% | 105% | 113% | 104% | 81.1% | 66.3% | 45.7% | 0.968% | 111% | 113% | 110% | 115% | 90.7% | 105% | 98.7% | 81.8% | 73.8% | 50.5% | 1.65% | -4.58 | -4.73 | -4.88 |
| CC(C)C[C@H](NC(=O)[C@H](CCc1ccccc1)NC(=O)CN1CCOCC1)C(=O)N[C@@H](Cc1ccccc1)C(=O)N[C@@H](CC(C)C)C(=O)[C@@]1(C)CO1 [Carfilzomib] | 96.9% | 95.1% | 92.8% | 72.1% | 38% | 6.99% | 6.67% | 6.94% | 7.78% | 6.72% | 5.3% | 4.01% | 3.38% | 4.46% | 4.7% | 4.85% | 5.3% | 5.68% | 6.03% | 5.53% | 5.22% | 2.45% | 76.7% | 14% | 4.9% | 4.79% | 4.72% | 4.54% | 4.57% | 4.18% | 4.16% | 3.52% | 2.15% | -7.38 | -8.83 | – |
